Measured values reported in the RNAGym collection of RNA variant scans (doi:10.7554/elife.90254).
The source gives no read counts; variants with many changes may rest on few reads.

B1: LINE1-full (parent)
chain: UACGUAGGUGGUUUUCCCCUGAUAGUGCUAAGGGGGCCUGGAAGUUUGGACUGGGCAGAGCUCAACACAGCGUGGCAAAGUGGCUGUGGCUAGACUGCCUCUCUGGAUUCCUCGUCACUCAGCAGGGCAUCUCUGAGAGAAAUGCC

Variants of: B1
Assay: self-cleavage, relative activity (ratio to wild type); higher = more cleavage; in vitro, sequencing; the parent is a self-cleaving ribozyme

Variant | self-cleavage
UACGUAGGUGGUUUUCCCCUGAAAGUGCUAAGAGGGCCUGGAAGUUCGGACUGGGCAGAGCUCAACACAGCGUGGCAAAGUGGCUGCGGCUAGACUGCCUCUCUGGAUUCCUCGUCACUCAGCAGGGCAUCUCUGAGAGAAAUGCC | 0.35
UACGUAGGUGGUUUUCCCCUGAUAGUGCUAAGGGGGCCUGGAAGUUUGGACUGGGCAGAGCUCAACACAGCGUGGCAAAGCGGCUGUGGCAAGACUGCCUCUCUGGAUUCCUCGUCUCUCGGCAGGGCAUCUCCGAGAGAAAUGCC | 1.15
UACGUAGGUGGUUUUCCCCUGAUAGUGCUAAGGGGGCCUGGAAGUUUGGACUGGGCAGAGCUCAUCACAGCGUGGCAAAGUGGCUGUGGCUAGACUGCCUCUUUGGAUUCCUCGUCGCUCAGCAGGGCAUCUCUGAGAGAAAUGCC | 0
UACGUAGGUGGUCUUCCCCUGAUAGUGCUAAGGGGGCCUGGAAGUUUGGACUGGGCAGAGCUCAACACAGUGUGGCAAAGUGGCUGCGGCUAGACUGCCUCUCUGGAUUCCUCGUCACUCAGCAGGGCAUCUCUGAGAGAAAUGCC | 0.05
UACGUAGGUGGUUUUCCCCUGAUAGUGCUAAGGGGGCCUGGAAGUUUGGACUGGGCGGAGCUCUACACAGCGUGGCAAAGUGGCUGUGGCUAGACUGCCUCUCUGGAUUCCUCGUCACUCAGCAGGGCAUCUCUGAGAGGAAUGCC | 0.15
UACGUAGGUGGUUUUCCCCCGAUAGUGCUAAGGGGGCCUGGAAGUUUGGACUGGGCAGAGCUCAACACAGCGUGGCAAAGUGGCUGUGGCUAGACUGCCUCUCUGGAUUCCUCGUCACUCAGCAGGGCAUCUCUGAGGGAGAUGCC | 2.09
UACGUAGGUGGUUUUCCCCUGAUAGUGCUAAGGGGGCCUGGAAGUUUGGACUGGGCAGAACUCAACACAGCGUGGCAUAGUGGCUGAGGCUAGACUGCCUCUCUGGAUUCCUCGUCACUCAGCAGGGCAUCUCUGAGAGAAAUGCC | 0.03
UACGUAGGUGGUUUUCCCCUGAUAGUGCUAAGGGGGCCUGGAAGUUUGGACUGGGCAGAGUUCAGCACAGCGUGGCAAAGUGGCUGGGGCUAGGCUGCCUCUCUGGAUUCCUCGUCACUCAGCAGGGCAUCUCUGAGAGAAAUGCC | 0.05
UACGUAGGUGGUUUUCCCCUGAUAGUGCUAAGGGGGCCUGGAAGUUUGGACUGGGCAGAGCUCAACGCAGCGUGGCAAAGUGGCUGUGGCUAGACUGCCUCUCUGGAUUCCUCGUCACUCGGCAGGGCAUCUCUGAGGGAAAUGCC | 1.07
UACGUAGGUGGUUUUCCCCUGGUAGUGCUGAGGGGGCCUGGAAGUUUGGACUGGGCAGAGCUCAACACAGCGUGGCAAAGUGGCUGUGGCUGGACUGCUUCUCUGGAUUCCUCGUCACUCAGCAGGGCAUCUCUGAGAGAAAUGCC | 0.44
UACGCAGGUGGUUAUCCCCUGAUAGUGCUAAGGGGGCCUGGAAGUUUGGACUGGGCAGAGCUCAACACAGCGUGGCAAAGUGGCUGUGGCUAGGCUGCCUCUCUGGAUUCCUCGUCACUCAGCAGGGCAUCUCUGAGAGAAAUGCC | 1.78
UACGUAGGUGGUUUUCCCCUGAUAGUGCUAUGGGGGCCUGGGAGUUUGGACUGGGCAGAGCUCAACACAGCGUGGCAAAGUGGCUGUGGCUAGACUGCCUCUCUGGAUUCCUCGUCACUCAGCAGGGCAUCUCUGAGGGAAAUGCU | 0.84
UACGUAGGUGGUUUUCCCCUGAUUGUGCUAAGGGGGCCUGGAAGUUUGGACUGGGCAGAGCUCAACACAGCGUGGCAAAGUGGCUGCGGCAAGACUGCCUCUCUGGAUACCUCGUCACUCAGCAGGGCAUCUCUGAGAGAAAUGCC | 0.17
UACGUAGGUGGUUUUCCCCUGAUAGUGCUAAAGGGGCCUGGAAGUUUGGACUGGGCAGAGCCCAACACAGCGUGGCAAAGUGGCUGUGGCUAGACUGCCUCUCUGGAUUCCUCGUCACUCAGAAGGGCAUCUCUGAGAGAAAUGCC | 0.04
UACGUAGGUGGUUUUCCCCUGACAGUGCUAAGGGGGCCAGGAAGUUUGGACUGGGCAGAGCUCCACACAGCGUGGCAAGGUGGCUGUGGCUAGACUGCCUCUCUGGAUUCCACGUCACUCAGCAGGGCAUCUCUGAGAGAAAUGCC | 0.33
UACGUAGGUGGUUCUCCCCUGAUAGUGCUAAGGGGGCCUGGAAGUUUGGACUGGGCUGAGCUCAACACAGCGUGGCAAAGUGGCUGUGGCUAGACUGCCUCUCUGGAUUCCUCGUCACUCAGCAGGGCAUCUCUGAGAGAUAUGCC | 0.14
UACGUAGGUGGUUUUCCCCUGAUGGUGCUAAGGGGGCCUGGAAGUUCGGACAGGGCAGAGCUCAACACAGCGUGGCAAAGUGGCUGUGGCUAGACUGCCUCUCUGGAUUCCUCGUCACUCAGCAGGGCAUCUCCGAGAGAAAUGCC | 0.59
UACGUAGGUGGCUUUCCCCUGAUAGUGCUAAGGGGGCCUGGAAGUUUGGACUGGGCAGAGCUCAACACAGCGUGGCAAAGUGGCUGUGGCUUGACUGCCUCUCUGGAUUCCUCGUUACUCAGCGGGGCAUCUCUGAGAGAAAUGCC | 0.41
UACGUAGGUGGUUUUCCCCUGAUAGUGCUAAGGGGGCCUGGAUGUAUGGACAGGGCAGAGCUCAACACAGCGUGGCAAAGUGGCUGUGGCUAGACUGCCUCUCUGGAUUCCUCGUCACUCAGCAGGGCACCUCUGAGAGAAAUGCC | 0.76
UACGUAGGUGGUUUCCCCCUGAUAGUGCUAAGGGGGCCUGGAAGUUUGGACUGGGCAGAGCUCAACACAGCGUGGCAAAGUGGCUGUGGCUAGACUGCCUCUCUGGAUUCCUCGCCUCUCAGCAGGGCAUCCCUGAGAGAAAUGCC | 1.1
